Laboratory results taken from PubChem BioAssay AID686978 (National Center for Advancing Translational Sciences (NCATS), 2013).
In all, about 420,000 compounds went through this assay and about 64,000 (15%) were called active. Inconclusive means that the source gave no clear call. Such entries were picked first, then a sample of the others. Calls come from the whole dose curve; as a rule, active = well fitted inhibition curve with a large enough effect; inconclusive = small, poorly fitted or top-dose-only effect; inactive = flat fitted curve, though single readings scatter. Potencies of inconclusive entries are left out as doubtful fits.

Experiment: qHTS for Inhibitors of human tyrosyl-DNA phosphodiesterase 1 (TDP1): qHTS in cells in absence of CPT; note: nearly all actives have a fitted effect of over 55% in size
Details: DT40 Tdp1-/- hTDP1 cells, no CPT, ATP luminescence, 48 h; activity change, negative = growth inhibition: at 46.2 µM (top of the series)
How it was run: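 Cells were dispensed at 400 per well, compounds added by pin tool, plates incubated ≥48 hr at 37 °C, then CellTiter-Glo added for 30 min at room temperature before luminescence reading. Line: DT40 Tdp1-/- complemented with hTDP1; camptothecin omitted.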
% is set by controls: 0 for no effect and ±100 for the full control effect; potency is the fitted concentration of half-maximal effect; tags give direction and shape of the fitted curve.

SMILES | Potency | activity change, negative = growth inhibition
COc1cc(O)c(C(CCN2CCOCC2)c2ccc3c(c2)OCO3)c(OC)c1 (configuration not stated) | inconclusive [inhibitor, single point] | 
Cc1cc(C)cc(NC(=O)CNS(=O)(=O)c2ccc3nc(C)sc3c2)c1 |  | inactive: -12.8%
COc1cccc(-c2csc(N3CCN(C(=O)Nc4ccc(Cl)cc4)CC3)n2)c1 | inconclusive [inhibitor, single point] | 
O=C(O)COc1ccc(Oc2ccccc2)cc1 |  | inactive: 9.23%
CC1=C(C(=O)Nc2cc(C(=O)N3CCN(c4ccc(Cl)cc4)CC3)ccc2C)SCCO1 | active: 14.6 µM | 
Oc1ccc(C(=S)N2CCCCCC2)cc1 |  | inactive: -3.1%
S=C(Nc1ccc2nsnc2c1)N1CCCCC1 |  | inactive: -25.6%
COc1ccc(Nc2nc(N3CCCCC3)c3ccccc3n2)cc1 | active: 18.4 µM | 
C[C@@H]1CCCCO[C@@H](CN(C)Cc2ccc(Cl)c(Cl)c2)[C@@H](C)CN([C@H](C)CO)C(=O)c2cc(NC(=O)Nc3ccccc3)ccc2O1 | active: 20.6 µM | 
O=C(c1cccc(F)c1)N1CCC2(CC1)CCN(c1ncccn1)CC2 | active: 18.4 µM | 
CN1C(=O)Cc2cc(S(=O)(=O)CCC(=O)Nc3ccc(OC(F)(F)F)cc3)ccc21 |  | inactive: -7.8%
COCCNC(=O)c1cc(-c2ccccc2)n(Cc2cc(C)no2)n1 |  | inactive: -8.22%
Cn1nc(C(=O)NCc2ccccc2CN2CCCC2)c2ccccc2c1=O | inconclusive [inhibitor, single point] | 
O=C(NCc1ccc(F)cc1)c1ccc(Cl)c(NC2=NC3CS(=O)(=O)CC3S2)c1 (configuration not stated) |  | inactive: -0.221%
C=CCOC(=O)C1=C(C)NC(SCC(=O)OCC)=C(C#N)C1c1ccc(C)cc1 (configuration not stated) |  | inactive: -15.5%
CCOc1ccc(OC(=O)c2c(-c3ccccc3Cl)noc2C)cc1 | active: 20.6 µM | 
Cc1ccc2oc(C(=O)N3CCC(O)(c4cccc(C(F)(F)F)c4)CC3)c(C)c2c1 | inconclusive [inhibitor, single point] | 
O=C(CCCc1c[nH]c2ccccc12)N1CCN(c2ccc(N3CCOCC3)nn2)CC1 | inconclusive [inhibitor, partial curve] | 
Cc1ccc(NC(=O)CN2C(=O)c3ccccc3Sc3ccc(C(=O)N4CCOCC4)cc32)c(Cl)c1 | inconclusive [inhibitor, partial curve] | 
O=[N+]([O-])c1ccc(Oc2cccc(Br)c2)c2ccncc12 | inconclusive [inhibitor, single point] | 
CCN(CC)C(=O)C1CCCN(Cc2ccccc2C(F)(F)F)C1 (configuration not stated) | inconclusive [inhibitor, single point] | 
CCOc1ccccc1N1Cc2cc(C)c(C)cc2C1 | inconclusive [inhibitor, single point] | 
CN1C(=O)C(CC(=O)Nc2ccc3c(c2)Cc2ccccc2-3)N(C)C1=O (configuration not stated) | inconclusive [inhibitor, partial curve] | 
CCOCCN(C(=O)c1ccccc1Cl)c1cccc(C)c1C | inconclusive [inhibitor, single point] | 

SMILES | Potency | activity change, negative = growth inhibition
CCN(CC)S(=O)(=O)c1ccc2oc(C(=O)Nc3cc(C)ccc3OC)c(C)c2c1 | inconclusive [inhibitor, single point] | 
COc1ccc(OC)c(NC(=O)Nc2cccc(Cn3cccn3)c2)c1 | inconclusive [inhibitor, single point] | 
Cc1nn(-c2ccccc2Cl)c(Cl)c1/C=N/Nc1nc2ccccc2s1 | active: 11.6 µM | 
NS(=O)(=O)c1ccc(Nc2nc(-c3ccccc3)cs2)cc1 |  | inactive: -16.9%
O=C(NCc1cccnc1)C1c2ccccc2C(=O)N1C1CCCCCC1 (configuration not stated) |  | inactive: -14.5%
Cn1c(SCC(=O)N2CCCC2=O)nc2ccccc21 |  | inactive: 0.944%
Cc1cccc(C(=O)Nc2nnc(-c3ccco3)o2)c1 | active: 10.3 µM | 
CCc1cc2c(cc3c(=O)n(CC(=O)NCc4cc(Br)ccc4OC)ncn32)s1 |  | inconclusive: -20.3% [inhibitor]
CCOc1cccc(-c2nnc3sc(COc4ccc(OC)cc4)nn23)c1 | inconclusive [inhibitor, single point] | 
CC(Nc1nc(-c2ccccc2F)nc2ccccc12)c1ccccc1 (configuration not stated) | inconclusive [inhibitor, partial curve] | 
CCCCCCCCN1C(=O)[C@H](CC(=O)NCc2cccs2)C[C@@]2(C(=O)OC)CCCCC=C12 | active: 14.6 µM | 
CC(C(=O)NCCS(=O)(=O)c1ccc(Cl)cc1)S(=O)(=O)c1ccccc1 (configuration not stated) | inconclusive [inhibitor, partial curve, poor fit] | 
COC(=O)CC1=NN(c2ccccc2)C(=O)/C1=C\c1ccc(OC)cc1 | inconclusive [inhibitor, single point] | 
Cc1ccc2c(=O)c(C(=O)NCc3cccs3)c[nH]c2c1 | inconclusive [inhibitor, single point] | 
O=C(CNS(=O)(=O)Cc1ccccc1)NNc1ccccc1 | inconclusive [inhibitor, single point] | 
CC1CCCN(CC(=O)N2c3ccccc3Sc3ccccc32)C1 (configuration not stated) | inconclusive [inhibitor, single point] | 
CC(=O)Nc1ccc(NC(=O)c2cc(=O)c3ccc(C)cc3o2)cc1 | inconclusive [inhibitor, partial curve] | 
C=C1CCC[C@]2(C)C[C@H]3OC(=O)C(CNC(C)(CO)CO)[C@H]3CC12 (some centres not stated) | active: 20.6 µM | 
COc1ccccc1N(C1=NCCCS1)S(=O)(=O)c1ccc(C(C)(C)C)cc1 | active: 23.1 µM | 
COC(=O)CCNC(=O)Cc1ccc(S(=O)(=O)N2CCCCC2)s1 | inconclusive [inhibitor, full curve, poor fit] | 
O=C(C[n+]1cccc2cc(Cl)ccc21)c1ccc(Br)cc1 | inconclusive [inhibitor, single point] | 
COc1cccc(N2CCN(C(=O)c3ccc4nc[nH]c4c3)CC2)c1 |  | inactive: 9.58%
CCOCCCNC(=O)COC(=O)/C=C/c1ccc(S(=O)(=O)N2CCc3ccccc32)cc1 |  | inactive: 3.91%
